Experimental data as given in PubChem BioAssay AID1030 (National Center for Advancing Translational Sciences (NCATS), 2008).
Where “and” joins values, the source holds several entries; their conditions need not be identical. Equal values may be shown once. Among all 220,000 compounds or so, about 16,000 (7.3%) were called active. Inconclusive results, whose numbers are uncertain, are shown with a selection of clear calls. The call rests on the fitted dose curve; in most records, active means well fitted inhibition curve with a large enough effect (not every such curve was filed as active); inconclusive means small, poorly fitted or top-dose-only effect, or another doubt; inactive means no such curve, though single readings can be large or run the other way. Potencies beside an inconclusive call are fits to weak or partial responses and may not hold up.

biological target: Aldehyde dehydrogenase 1A1 (Homo sapiens) (UniProt P00352); assay: qHTS Assay for Inhibitors of Aldehyde Dehydrogenase 1 (ALDH1A1); conditions: Purified ALDH1A1, NADH fluorescence, propionaldehyde substrate; series mostly up to 75.3 µM;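 on activity, negative = inhibition: plate controls were no enzyme wells and a reference inhibitor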
Sequence of UniProt P00352 (P00352 whole entry, looked up): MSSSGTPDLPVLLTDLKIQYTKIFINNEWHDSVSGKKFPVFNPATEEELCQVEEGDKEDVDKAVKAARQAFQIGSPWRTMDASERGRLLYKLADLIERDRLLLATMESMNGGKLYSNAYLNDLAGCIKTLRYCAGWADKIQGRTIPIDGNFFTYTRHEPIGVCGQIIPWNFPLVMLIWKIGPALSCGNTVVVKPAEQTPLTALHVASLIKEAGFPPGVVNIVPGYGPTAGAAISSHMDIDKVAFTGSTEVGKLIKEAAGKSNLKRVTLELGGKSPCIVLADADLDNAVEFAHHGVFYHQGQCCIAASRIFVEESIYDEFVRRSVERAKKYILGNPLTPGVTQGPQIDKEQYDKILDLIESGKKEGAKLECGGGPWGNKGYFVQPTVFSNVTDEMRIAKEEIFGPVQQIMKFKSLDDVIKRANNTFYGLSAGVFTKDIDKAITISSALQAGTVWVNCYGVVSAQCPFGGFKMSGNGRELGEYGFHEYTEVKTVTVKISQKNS
Potency means the concentration at half of the fitted maximal effect; tags describe the fitted curve by direction and shape.

Potency, inconclusive:
CCC(C)NC(=O)CSC1=Nc2ccccc2C2=NC(CCC(=O)NCc3ccco3)C(=O)N12 (stereo not given) 39.8 µM [inhibitor, single point], CC1=CN2C(=NC(=O)CC2(C)C(=O)N(CC(=O)NC2CCCC2)c2ccccc2C)C=C1 (stereo not given) 31.6 µM [inhibitor, partial curve], CCOC(=O)Nc1ccc(OC)c([N+](=O)[O-])c1 39.8 µM [inhibitor, single point], COc1ccc2ccc(=O)oc2c1 28.2 µM [inhibitor, partial curve] and 31.6 µM [inhibitor, partial curve], OC[C@H]1O[C@@H]2O[C@H]3[C@H](O)[C@@H](O)[C@@H](O[C@H]4[C@H](O)[C@@H](O)[C@@H](O[C@H]5[C@H](O)[C@@H](O)[C@@H](O[C@H]6[C@H](O)[C@@H](O)[C@@H](O[C@H]7[C@H](O)[C@@H](O)[C@@H](O[C@H]1[C@H](O)[C@H]2O)O[C@@H]7CO)O[C@@H]6CO)O[C@@H]5CO)O[C@@H]4CO)O[C@@H]3CO 39.8 µM [inhibitor, single point], COC(=O)c1sccc1N/N=C/c1ccc(OC)c(OC)c1OC 31.6 µM [inhibitor, partial curve], COc1ccc(Nc2ncnc3sc(-c4ccccc4)cc23)cc1 28.2 µM [inhibitor, single point], CCOC(=O)c1ccccc1N/C=C1\CCCCC1=O 22.4 µM [inhibitor, partial curve], CC(=O)c1ccc(NC(=O)COC(=O)c2ccccc2Nc2ccccc2)cc1 35.5 µM [inhibitor, single point], COc1cc(CN2CCC(C(=O)N3CCN(c4ccccc4F)CC3)CC2)ccc1O 31.6 µM [inhibitor, partial curve], Cn1c(-c2cc3c(C(F)(F)F)nn(C)c3s2)n[nH]c1=S 25.1 µM [inhibitor, partial curve], COC(=O)c1sc2cnccc2c1N 25.1 µM [inhibitor, partial curve], O=C(CCN1C(=O)C2C3C=CC(C3)C2C1=O)Nc1ccccn1 (stereo not given) 39.8 µM [inhibitor, single point], Cc1cc(N2CCOCC2)ccc1/C=C\[N+](=O)[O-] 44.7 µM [inhibitor, single point], C#CCOCCOCCOCCNc1nc(N2CCN(C(=O)[C@H]([C@@H](C)CC)n3cc([C@@H](N)CO)nn3)CC2)nc(N2CCN(C(=O)[C@H](Cc3cc4ccccc4[nH]3)n3cc([C@@H](N)C(C)CC)nn3)CC2)n1 (stereo not given in full) 28.2 µM [inhibitor, single point], Cc1cc(-c2ccccc2)nc2cc(C(=O)NCCCn3ccnc3)nn12 39.8 µM [inhibitor, single point], CC1CC(=O)c2cnc(NCC3CCCO3)nc2C1 (stereo not given) 39.8 µM [inhibitor, single point], CCOc1ccc(C2C3=C(CCCC3=O)Nc3nc(C(F)(F)F)nn32)cc1OC (stereo not given) 35.5 µM [inhibitor, single point], O=C(O)c1cccnc1SC1CC(=O)N(c2cccc3ccccc23)C1=O (stereo not given) 39.8 µM [inhibitor, single point], COc1cc2c(cc1NC(=O)COC(=O)c1ccccc1)oc1ccccc12 35.5 µM [inhibitor, partial curve], Cc1ccc(S(=O)(=O)N2CCCCC2)cc1NC(=O)CN1C(=O)CN(C)C1=O 39.8 µM [inhibitor, single point], CCS(=O)(=O)n1nc(-c2ccco2)nc1N 39.8 µM [inhibitor, single point], CCOC(=O)c1sc(N(C)C)nc1-c1ccccc1 39.8 µM [inhibitor, single point], NC(=O)c1cccc2cc3ccccc3cc12 20 µM [inhibitor, partial curve], COCCn1c(=O)c(C)nc2cnc(N3CCN(C)CC3)nc21 28.2 µM [inhibitor, partial curve], O=C(COC(=O)Cc1ccccc1[N+](=O)[O-])NCc1ccc(Cl)cc1 39.8 µM [inhibitor, single point], O=C(Nc1ccc2c(c1)OCO2)c1cccs1 39.8 µM [inhibitor, single point], COc1ccc(N2CCN(Cc3nc(N)nc(Nc4ccc(C)c(Cl)c4)n3)CC2)cc1 20 µM [inhibitor, single point], Cc1ccnc(NS(=O)(=O)c2ccc(Cl)nc2)c1 35.5 µM [inhibitor, single point], O=c1cc(C(F)(F)F)[nH]c(=O)n1C1CCCCC1 25.1 µM [inhibitor, single point], Cc1cc(=O)oc2cc(OCC(=O)OC(C)C(=O)NC3CCCC3)ccc12 (stereo not given) 28.2 µM [inhibitor, single point], C=CCSc1nnc2c(n1)[nH]c1c(C)cccc12 22.4 µM [inhibitor, single point], CCCNC(=O)c1c[nH]c2ccc(S(=O)(=O)N(C)c3ccc(OCC)cc3)cc2c1=O 35.5 µM [inhibitor, single point], COc1cc(/C=N/N=C(N)N)ccc1OCc1ccccc1Cl 35.5 µM [inhibitor, single point], CC(C)c1nc(N2CCN(C(=O)c3ccco3)CC2)c2c3c(sc2n1)CCCC3 28.2 µM [inhibitor, partial curve], COc1cccc(N2CCN(C3CC(=O)N(c4ccc(Cl)cc4)C3=O)CC2)c1 (stereo not given) 39.8 µM [inhibitor, single point], N#Cc1cnn2c(N)c(-c3ccc(Cl)cc3)cnc12 39.8 µM [inhibitor, single point], O=S(=O)(NCC1OCCc2ccccc21)c1ccc(S(=O)(=O)N2CCOCC2)cc1 (stereo not given) 39.8 µM [inhibitor, single point], COc1ccc(-c2ccc(S(=O)(=O)N3CCCC3)cc2)cc1 25.1 µM [inhibitor, partial curve], CCOc1ccc2[nH]c(=O)c(C(c3nnnn3Cc3ccco3)N3CCN(C)CC3)cc2c1 (stereo not given) 20 µM [inhibitor, single point]

Potency, active:
Cc1noc(NC(=O)c2ccccc2)c1C#N 10 µM, CCCCC(=O)Nc1sc2c(c1-c1nc3ccccc3s1)CCN(C(C)=O)C2 25.1 µM, NC(=S)N1OC[C@@H]2COc3ccc4ccccc4c3[C@@H]21 12.6 µM, COC(=O)C1CSc2[nH]c(=O)sc2C1c1ccccc1 (stereo not given) 31.6 µM, COC(=O)c1cccc(Cn2c(Cl)c(/C=N/Nc3ccccc3C)sc2=O)c1 22.4 µM, O=C1c2ccccc2S(=O)(=O)N1CC(O)Cn1ccc2ccccc21 (stereo not given) 12.6 µM, CCN(CC)S(=O)(=O)c1ccc(O)c(NC(=O)c2ccc(N3CCOCC3)c([N+](=O)[O-])c2)c1 0.708 µM, CCOC(=O)C1CCCN(Cc2ccc3c(c2)OCO3)C1 (stereo not given) 12.6 µM, C=CCOc1ccc(C2c3c(oc4ccccc4c3=O)C(=O)N2CCCN2CCOCC2)cc1 (stereo not given) 17.8 µM, COc1ccc(C2=NN(C(C#N)c3ccc(OC)c(OC)c3)C(c3ccccc3)C2)cc1 (stereo not given) 17.8 µM, CCOC(=O)CSC1=C(C#N)C(c2ccc(Cl)cc2)C(C(=O)OC)C(=O)N1 (stereo not given) 25.1 µM, OCCN1CCN(C(c2cccs2)c2ccc3cccnc3c2O)CC1 (stereo not given) 1.26 µM, Cc1ccccc1C(=O)Nc1cccc(-c2ccc3nncn3n2)c1 14.1 µM, COc1cccc(-n2c(C)cc(/C=C3/C(=N)N4C(=NC3=O)SN=C4S(C)(=O)=O)c2C)c1 31.6 µM

Potency, inactive:
CCOC(=O)CNC(=O)CSc1nc2cccnc2n1C, O=C(CCS(=O)(=O)c1ccc(Br)s1)Nc1ccccc1Br, Cc1occc1C(=O)NC(C)CCc1ccccc1 (stereo not given), CCN(CC)CCOc1ccc2c(c1)C(=NO)c1cc(OCCN(CC)CC)ccc1-2, N#Cc1ccccc1NC(=O)COC(=O)COc1ccccc1[N+](=O)[O-], O=C(Nc1ccc(S(=O)(=O)NC2=NCCCCC2)cc1)c1ccco1, COc1ccc(OC(C)C(=O)Nc2ccccc2F)cc1 (stereo not given), COc1ccc(/C=C/C(=O)c2ccccc2)cc1COc1ccc(F)cc1, Cc1cccn2c(CN(C)C3CCCc4ccccc43)c(C(=O)N3CCOCC3)nc12 (stereo not given), CCN(CC)CCNC(=O)C1c2ccccc2C(=O)N(CCOC)C1c1ccc(F)cc1 (stereo not given), OCCCC1CCCCN1Cc1nc(Cc2ccccc2Cl)no1 (stereo not given), Cc1ccc(-c2nc(NC(=O)CSc3cc(C)c4ccccc4n3)ns2)cc1, O=C(Cc1cccs1)NCCCc1ccccc1, CC(NC(=O)Cn1cnc([N+](=O)[O-])n1)c1ccccc1 (stereo not given), O=C(Nc1ccc(Br)cc1Cl)NC1CC1

activity, negative = inhibition, inactive:
CC(C)c1ccc(O)c(O)c(=O)c1 (tested in a mixture with another compound) -5.39% [at 13.5 µM]
